Measurements taken from US20250340636A1, “ANTIBODIES TARGETING L1CAM AND USES THEREOF” (MEMORIAL SLOAN-KETTERING CANCER CENTER, priority 2023, published 2025).

Key:
[1] = test system: MCF-7 breast cancer cell line
Experimental: (§1) ADC Cytotoxicity Analysis. The potency of the ADCs was tested in cytotoxicity assays using various cell types that express human L1CAM at different levels, including stably transfected HEK293T cells (overexpression), the MCF-7 breast cancer cell line (medium expression) and the MDA-MB-231 breast cancer cell line (low-medium expression). The ADCs were added to the cells at various concentrations ranging from 0.1 pM to 100 nM, and cell viability was assessed 96 hours later.
(§2) The ADCs were added to the cells at various concentrations, with 10 serial 5-fold dilutions starting at 10 μg/ml. Cell viability was assessed 96 hours later using CellTiterGlo reagent, and cell viability was plotted against antibody concentration (FIG. 18).

[2] = target: HEK293T cells overexpressing human L1CAM (Homo sapiens, UniProt P32004)
HEK293T cells overexpressing human L1CAM, sequence (P32004 20-1257): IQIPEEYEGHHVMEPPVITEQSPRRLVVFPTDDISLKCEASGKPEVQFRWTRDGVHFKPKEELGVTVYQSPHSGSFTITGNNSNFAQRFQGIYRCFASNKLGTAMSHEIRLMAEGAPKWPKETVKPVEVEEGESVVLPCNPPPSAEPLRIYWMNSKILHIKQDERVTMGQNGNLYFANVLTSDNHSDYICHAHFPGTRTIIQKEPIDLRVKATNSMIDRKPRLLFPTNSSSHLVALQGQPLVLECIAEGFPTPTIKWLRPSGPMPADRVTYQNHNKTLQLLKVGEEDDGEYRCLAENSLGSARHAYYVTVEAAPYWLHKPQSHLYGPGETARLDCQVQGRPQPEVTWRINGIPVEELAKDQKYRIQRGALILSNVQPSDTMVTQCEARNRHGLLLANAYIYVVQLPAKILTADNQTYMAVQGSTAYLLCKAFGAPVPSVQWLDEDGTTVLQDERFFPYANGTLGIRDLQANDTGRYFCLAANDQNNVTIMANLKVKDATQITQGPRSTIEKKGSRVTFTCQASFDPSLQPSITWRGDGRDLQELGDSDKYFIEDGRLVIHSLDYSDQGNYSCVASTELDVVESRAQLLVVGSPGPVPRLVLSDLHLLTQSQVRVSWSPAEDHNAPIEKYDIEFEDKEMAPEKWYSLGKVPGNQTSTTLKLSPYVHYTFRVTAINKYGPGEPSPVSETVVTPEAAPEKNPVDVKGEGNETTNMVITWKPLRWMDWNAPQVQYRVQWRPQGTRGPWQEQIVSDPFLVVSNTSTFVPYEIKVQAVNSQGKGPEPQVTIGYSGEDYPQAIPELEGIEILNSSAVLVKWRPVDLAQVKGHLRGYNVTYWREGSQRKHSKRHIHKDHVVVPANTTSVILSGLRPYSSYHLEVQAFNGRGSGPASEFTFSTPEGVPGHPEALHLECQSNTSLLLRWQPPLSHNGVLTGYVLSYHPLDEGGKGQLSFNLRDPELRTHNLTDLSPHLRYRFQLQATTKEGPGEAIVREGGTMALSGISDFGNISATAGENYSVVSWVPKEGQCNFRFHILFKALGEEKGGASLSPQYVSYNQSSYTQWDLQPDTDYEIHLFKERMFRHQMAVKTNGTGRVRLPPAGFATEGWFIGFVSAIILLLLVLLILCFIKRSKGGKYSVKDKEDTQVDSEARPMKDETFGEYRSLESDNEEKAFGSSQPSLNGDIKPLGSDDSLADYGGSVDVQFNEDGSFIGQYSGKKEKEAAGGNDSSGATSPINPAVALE
Experimental: as §1, §2

[3] = test system: MDA-MB-231 breast cancer cell line
Experimental: as §1, §2

human NrCAM = target: T1, human NrCAM (Homo sapiens, UniProt Q92823); test: Selectivity ELISA, NrCAM; format: binding; settings: for binding to NrCAM: 1 μM antibody; for Binding to human NrCAM: at 1 μM
T1 construct: human NrCAM (residues 30-600 with a C-terminal human IgG1 Fc tag, R&D Systems); purchased R&D Systems
T1 sequence (Q92823 30-600): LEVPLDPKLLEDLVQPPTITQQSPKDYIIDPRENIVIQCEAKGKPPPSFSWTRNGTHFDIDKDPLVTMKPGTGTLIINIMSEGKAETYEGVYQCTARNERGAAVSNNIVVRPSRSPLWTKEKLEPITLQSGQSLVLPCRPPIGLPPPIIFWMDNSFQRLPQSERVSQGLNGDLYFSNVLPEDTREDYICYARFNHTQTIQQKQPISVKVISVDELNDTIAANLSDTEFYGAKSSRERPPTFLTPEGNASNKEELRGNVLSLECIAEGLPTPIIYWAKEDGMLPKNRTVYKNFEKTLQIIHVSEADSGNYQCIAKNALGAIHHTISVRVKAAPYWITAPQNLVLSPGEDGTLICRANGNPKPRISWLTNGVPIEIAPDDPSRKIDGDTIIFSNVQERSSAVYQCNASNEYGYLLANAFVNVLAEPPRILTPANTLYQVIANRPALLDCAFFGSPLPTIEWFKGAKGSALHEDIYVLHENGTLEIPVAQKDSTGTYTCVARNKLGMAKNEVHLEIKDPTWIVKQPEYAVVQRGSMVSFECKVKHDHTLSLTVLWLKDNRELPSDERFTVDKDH
Source text: (§3) Selectivity. […] These proteins are other members of the L1 family of cell adhesion proteins and have between 49% and 55% sequence similarity with L1CAM in the extracellular portion. […] Positive control antibodies were included for each homolog. […] Epitope. The extracellular portion of L1CAM contains six immunoglobulin-like (Ig) domains and five fibronectin type III (FN) domains. To narrow down the binding region of the development candidate mAbs, truncated versions of human L1CAM protein (Ig domain, residues 21-605; FN domain, residues 606-1116; each with a C-terminal 6×His tag) were recombinantly produced, followed by a BLI experiment to test binding at 50 and 100 nM. […] 6×His tag is set forth in SEQ ID NO: 316.

human Neurofascin = target: T2, human Neurofascin (Homo sapiens, UniProt O94856); test: Selectivity ELISA, Neurofascin; format: binding; settings: for binding to Neurofascin: 1 μM antibody; for Binding to human Neurofascin: at 1 μM
T2 construct: human Neurofascin (residues 25-1039 with a C-terminal 10×His tag, R&D Systems); purchased R&D Systems
T2 sequence (O94856 25-1039 isoform O94856-3): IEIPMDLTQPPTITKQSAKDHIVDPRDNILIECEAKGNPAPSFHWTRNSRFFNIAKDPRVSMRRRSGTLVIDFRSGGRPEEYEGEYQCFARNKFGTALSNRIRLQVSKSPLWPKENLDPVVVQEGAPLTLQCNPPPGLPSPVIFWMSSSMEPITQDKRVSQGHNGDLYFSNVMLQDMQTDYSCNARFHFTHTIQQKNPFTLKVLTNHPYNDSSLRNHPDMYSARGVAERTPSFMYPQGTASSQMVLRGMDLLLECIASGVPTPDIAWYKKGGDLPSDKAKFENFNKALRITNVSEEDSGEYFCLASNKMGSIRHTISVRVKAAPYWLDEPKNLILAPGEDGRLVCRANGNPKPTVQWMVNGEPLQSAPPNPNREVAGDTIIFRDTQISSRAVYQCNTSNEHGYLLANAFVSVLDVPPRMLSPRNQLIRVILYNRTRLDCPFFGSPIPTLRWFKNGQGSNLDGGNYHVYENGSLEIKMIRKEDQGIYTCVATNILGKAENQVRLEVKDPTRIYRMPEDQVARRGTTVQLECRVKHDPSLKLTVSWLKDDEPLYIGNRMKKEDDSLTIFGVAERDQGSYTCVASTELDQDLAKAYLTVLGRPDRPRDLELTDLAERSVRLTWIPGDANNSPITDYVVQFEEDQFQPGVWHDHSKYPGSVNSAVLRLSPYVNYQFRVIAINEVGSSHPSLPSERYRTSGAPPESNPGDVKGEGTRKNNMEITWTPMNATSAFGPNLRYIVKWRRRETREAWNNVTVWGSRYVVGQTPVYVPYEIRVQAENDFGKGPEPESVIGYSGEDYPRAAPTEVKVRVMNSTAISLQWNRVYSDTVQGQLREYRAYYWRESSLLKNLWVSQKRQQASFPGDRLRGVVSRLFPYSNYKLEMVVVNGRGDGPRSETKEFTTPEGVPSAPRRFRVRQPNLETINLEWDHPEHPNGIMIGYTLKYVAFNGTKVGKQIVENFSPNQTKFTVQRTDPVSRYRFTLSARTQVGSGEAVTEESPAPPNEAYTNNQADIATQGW
Source text: as §3

[4] = test system: MDA-MB-231-LM2 breast cancer cells; test: MDA-MB-231-LM2 subcutaneous xenografts; format: in vivo; settings: MDA-MB-231 subcutaneous xenograft model, mouse
Experimental: Athymic mice were transplanted subcutaneously with MDA-MB-231-LM2 breast cancer cells. […] FIGS. 26A and 26B show tumor growth monitored on a weekly basis.
MDA-MB-231-LM2 Subcutaneous Xenografts. Doses of 5×10^6 cells of the aggressive lung metastatic derivative (MDA231-LM2) of the MDA-MB-231 triple negative breast cancer cell line were injected into the flank of athymic mice, and tumors were grown until they reached 100 mm^3 in size.

B1: TDI-Y-004 (antibody)
heavy: QVQLVQSGAEVKKPGSSVKVSCKASGYTFTNYYIHWVRQAPGQGLEWMGKIGPGSGSPYYQGMFKDRVTITADESTSTAYMELSSLRSEDTAVYYCARWLLPFDYWGQGTLVTVSS[human IgG1 constant region not printed]
light: EIVLTQSPGTLSLSPGERATLSCRASSSVNYMHWYQQKPGQAPRLLIYATSILASGIPDRFSGSGSGTDYTLTISRLEPEDFAVYYCQQFSSDPLTFGGGTKVEIKRTVAAPSVFIFPPSDEQLKSGTASVVCLLNNFYPREAKVQWKVDNALQSGNSQESVTEQDSKDSTYSLSSTLTLSKADYEKHKVYACEVTHQGLSSPVTKSFNRGEC
[1]
  Cytotoxicity for cells with endogenous L1CAM (MCF-7): Weak
[2]
  Cytotoxicity for cells overexpressing human L1CAM (HEK293T): Moderate
[3]
  Cytotoxicity for cells with endogenous LICAM (MDA-MB-231): Nonspecific killing only
Human NrCAM
  binding to NrCAM: No binding
  Binding to human NrCAM: No binding at 1 μM
Human Neurofascin
  binding to Neurofascin: No binding
  Binding to human Neurofascin: No binding at 1 μM
[4]; ADC with cleavable linker
  Survival: 100% survival
  Tumor control: >90% tumor control
  Tumor regrowth, days after last dose: No tumor regrowth up to 60
[4]; ADC with non-cleavable linker
  Survival: 100% survival
  Tumor control: 100%
  Tumor recurrence, days after last dose: No tumor recurrence up to 60
  Tumor regression: complete

B2: TDI-Y-005 (antibody)
heavy: EVQMVESGGGLVQPGGSLRLSCAAPGFIFSSYNMNWVRQAPGKGLEWVSYISSSSSTTYYADSVKGRFTISRDNAKNSLYLQMNSLRDEDTAVYYCASLYSGYDYYYYYGMDVWGQGTTVTVSS[human IgG1 constant region not printed]
light: DIVMTQTPLSSPVSLGQPASISCRSSQSLVHSDGNTYLSWLQQRPGQPPRVLIYKISKRFSGVPDRFSGSGAGTDFTLKISRVEAEDVGVYYCMQATQFPFTFGPGTKVDIKRTVAAPSVFIFPPSDEQLKSGTASVVCLLNNFYPREAKVQWKVDNALQSGNSQESVTEQDSKDSTYSLSSTLTLSKADYEKHKVYACEVTHQGLSSPVTKSFNRGEC
[1]
  Cytotoxicity for cells with endogenous L1CAM (MCF-7): Weak
[2]
  Cytotoxicity for cells overexpressing human L1CAM (HEK293T): Moderate
[3]
  Cytotoxicity for cells with endogenous LICAM (MDA-MB-231): Nonspecific killing only
Human NrCAM
  binding to NrCAM: No binding
  Binding to human NrCAM: No binding at 1 μM
Human Neurofascin
  binding to Neurofascin: No binding
  Binding to human Neurofascin: No binding at 1 μM
[4]; ADC with cleavable linker
  Survival: 100% survival
  Tumor control: >90% tumor control
  Tumor regrowth, days after last dose: No tumor regrowth up to 60 days
[4]; ADC with non-cleavable linker
  Survival: 100% survival
  Tumor control: 100% tumor control,
  Tumor recurrence, days after last dose: No tumor recurrence up to 60 days
  Tumor regression: complete regression
